Measurements: the supplement of paper PMC8728848
Some of the results follow.

Legend:
Assay in all cases: glycan array binding signal (z-score within array); higher = stronger binding
Details in all cases: glycan notation: IUPAC condensed, linker removed
[1] = target: Gal(b1-4)GlcNAc(b1-3)Gal(b1-4)GlcNAc(b1-3)Gal(b1-4)GlcNAc(b1-3)Gal(b1-4)GlcNAc(b1-2)Man(a1-3)[Gal(b1-4)GlcNAc(b1-3)Gal(b1-4)GlcNAc(b1-3)Gal(b1-4)GlcNAc(b1-3)Gal(b1-4)GlcNAc(b1-2)Man(a1-6)]Man(b1-4)GlcNAc(b1-4)[Fuc(a1-6)]GlcNAc
Outline: (§1)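 The binding signal is a Z-score computed within each array. Data were drawn from 3228 arrays in the Consortium for Functional Glycomics database, restricted to those with a known protein sequence. Scores were averaged over arrays of the same protein sequence at different concentrations or buffers, and over linkers, and negative values can be taken as non-binding.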

[2] = target: Gal(b1-4)GlcNAc(b1-3)Gal(b1-4)GlcNAc(b1-3)Gal(b1-4)GlcNAc(b1-3)Gal(b1-4)GlcNAc(b1-2)[Gal(b1-4)GlcNAc(b1-3)Gal(b1-4)GlcNAc(b1-3)Gal(b1-4)GlcNAc(b1-3)Gal(b1-4)GlcNAc(b1-6)]Man(a1-6)[Gal(b1-4)GlcNAc(b1-3)Gal(b1-4)GlcNAc(b1-3)Gal(b1-4)GlcNAc(b1-3)Gal(b1-4)GlcNAc(b1-2)Man(a1-3)]Man(b1-4)GlcNAc(b1-4)[Fuc(a1-6)]GlcNAc
Outline: as §1

[3] = target: Gal(b1-4)GlcNAc(b1-3)Gal(b1-4)GlcNAc(b1-3)Gal(b1-4)GlcNAc(b1-3)Gal(b1-4)GlcNAc(b1-3)Gal(b1-4)GlcNAc(b1-2)Man(a1-3)[Gal(b1-4)GlcNAc(b1-3)Gal(b1-4)GlcNAc(b1-3)Gal(b1-4)GlcNAc(b1-3)Gal(b1-4)GlcNAc(b1-3)Gal(b1-4)GlcNAc(b1-2)Man(a1-6)]Man(b1-4)GlcNAc(b1-4)GlcNAc
Outline: as §1

[4] = target: Gal(b1-4)GlcNAc(b1-3)Gal(b1-4)GlcNAc(b1-3)Gal(b1-4)GlcNAc(b1-3)Gal(b1-4)GlcNAc(b1-3)Gal(b1-4)GlcNAc(b1-2)Man(a1-3)[Gal(b1-4)GlcNAc(b1-3)Gal(b1-4)GlcNAc(b1-3)Gal(b1-4)GlcNAc(b1-3)Gal(b1-4)GlcNAc(b1-3)Gal(b1-4)GlcNAc(b1-2)Man(a1-6)]Man(b1-4)GlcNAc(b1-4)[Fuc(a1-6)]GlcNAc
Outline: as §1

[5] = target: Gal(b1-4)GlcNAc(b1-3)Gal(b1-4)GlcNAc(b1-3)Gal(b1-4)GlcNAc(b1-3)Gal(b1-4)GlcNAc(b1-3)Gal(b1-4)GlcNAc(b1-2)[Gal(b1-4)GlcNAc(b1-3)Gal(b1-4)GlcNAc(b1-3)Gal(b1-4)GlcNAc(b1-3)Gal(b1-4)GlcNAc(b1-3)Gal(b1-4)GlcNAc(b1-6)]Man(a1-6)[Gal(b1-4)GlcNAc(b1-3)Gal(b1-4)GlcNAc(b1-3)Gal(b1-4)GlcNAc(b1-3)Gal(b1-4)GlcNAc(b1-3)Gal(b1-4)GlcNAc(b1-2)Man(a1-3)]Man(b1-4)GlcNAc(b1-4)[Fuc(a1-6)]GlcNAc
Outline: as §1

[6] = target: Gal(b1-4)GlcNAc(b1-3)Gal(b1-4)GlcNAc(b1-3)Gal(b1-4)GlcNAc(b1-3)Gal(b1-4)GlcNAc(b1-3)Gal(b1-4)GlcNAc(b1-3)Gal(b1-4)GlcNAc(b1-2)Man(a1-3)[Gal(b1-4)GlcNAc(b1-3)Gal(b1-4)GlcNAc(b1-3)Gal(b1-4)GlcNAc(b1-3)Gal(b1-4)GlcNAc(b1-3)Gal(b1-4)GlcNAc(b1-3)Gal(b1-4)GlcNAc(b1-2)Man(a1-6)]Man(b1-4)GlcNAc(b1-4)GlcNAc
Outline: as §1

[7] = target: Gal(b1-4)GlcNAc(b1-3)Gal(b1-4)GlcNAc(b1-3)GalNAc
Outline: as §1

[8] = target: Gal(b1-4)GlcNAc(b1-3)Gal(b1-4)GlcNAc(b1-3)[Gal(b1-4)GlcNAc(b1-3)Gal(b1-4)GlcNAc(b1-6)]GalNAc
Outline: as §1

[9] = target: Gal(b1-4)GlcNAc(b1-3)Gal(b1-4)GlcNAc(b1-6)[Gal(b1-3)]GalNAc
Outline: as §1

[10] = target: Gal(b1-4)GlcNAc(b1-3)Gal(b1-4)[Fuc(a1-3)]GlcNAc(b1-3)Gal(b1-4)[Fuc(a1-3)]GlcNAc
Outline: as §1

[11] = target: Gal(b1-4)GlcNAc(b1-3)GalNAc
Outline: as §1

[12] = target: Gal(b1-4)GlcNAc(b1-3)[Fuc(a1-3)GlcNAc(b1-6)]Gal(b1-4)Glc
Outline: as §1

[13] = target: Gal(b1-4)GlcNAc(b1-3)[Gal(b1-4)GlcNAc(b1-6)]Gal(b1-4)GlcNAc
Outline: as §1

[14] = target: Gal(b1-4)GlcNAc(b1-3)[GlcNAc(b1-6)]Gal(b1-4)GlcNAc
Outline: as §1

[15] = target: Gal(b1-4)GlcNAc(b1-6)Gal(b1-4)GlcNAc
Outline: as §1

[16] = target: Gal(b1-4)GlcNAc(b1-6)Gal(b1-4)GlcNAc(b1-6)GalNAc
Outline: as §1

[17] = target: Gal(b1-4)GlcNAc(b1-6)GalNAc
Outline: as §1

[18] = target: Gal(b1-4)GlcNAc(b1-6)[Gal(b1-3)]GalNAc
Outline: as §1

[19] = target: Gal(b1-4)GlcNAc(b1-6)[Gal(b1-4)GlcNAc(b1-3)]GalNAc
Outline: as §1

Gal(b1-4)GlcNAc6P = target: Gal(b1-4)GlcNAc6P
Outline: as §1

Gal(b1-6)Gal = target: Gal(b1-6)Gal
Outline: as §1

Gal3S(b1-3)GalNAc = target: Gal3S(b1-3)GalNAc
Outline: as §1

Gal3S(b1-3)GlcNAc = target: Gal3S(b1-3)GlcNAc
Outline: as §1

B1: HPAIIITrx (Helix pomatia), Q1KM18 (protein)
chain: MLFVTIISLGLLAIVHGQCALKTIAFSAAIDREQTFDANQVVIYDIVITNHGNAYDNSTGLFTAPVDGMYSFQLNLLTIKEKEGWLELVHNGQLKVSVYAKQDSTYDSSSNSVIIKMKEGDRVNVRAHKKSGLFGRDDELYNTFSGHFLSGL
- glycan array binding signal (z-score) [1]: -0.315
- glycan array binding signal (z-score) [2]: -0.227
- glycan array binding signal (z-score) [3]: -0.204
- glycan array binding signal (z-score) [4]: -0.322
- glycan array binding signal (z-score) [5]: -0.322
- glycan array binding signal (z-score) [6]: -0.329
- glycan array binding signal (z-score) [7]: 0.088
- glycan array binding signal (z-score) [8]: 0.179
- glycan array binding signal (z-score) [9]: 0.156
- glycan array binding signal (z-score) [10]: -0.116
- glycan array binding signal (z-score) [11]: -0.185
- glycan array binding signal (z-score) [12]: -0.139
- glycan array binding signal (z-score) [13]: -0.21
- glycan array binding signal (z-score) [14]: -0.312
- glycan array binding signal (z-score) [15]: -0.405
- glycan array binding signal (z-score) [16]: -0.026
- glycan array binding signal (z-score) [17]: -0.158
- glycan array binding signal (z-score) [18]: -0.344
- glycan array binding signal (z-score) [19]: -0.341
- glycan array binding signal (z-score) (Gal(b1-4)GlcNAc6P): 0.577
- glycan array binding signal (z-score) (Gal(b1-6)Gal): 0.217
- glycan array binding signal (z-score) (Gal3S(b1-3)GalNAc): -0.106
- glycan array binding signal (z-score) (Gal3S(b1-3)GlcNAc): -0.153
